From the supplement of paper PMC12067230
This is a noisy data set.

experiment: amyloid nucleation score relative to library mode (yeast Sup35 reporter selection) (log enrichment difference); higher = more amyloid nucleation; sequences are the first 22 residues of the Bri2 peptide extended by up to 12 random residues; conditions: random library (experiment): 2;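 active = nucleation score significantly above 0 at FDR 0.05; inactive = not significantly above 0 or absent from output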
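Note: [psi-pin-] Saccharomyces cerevisiae expressing SupN fusions, induced by 100 µM Cu2SO4, selected 7 d at 30 °C without adenine and uracil, scored by deep sequencing of output versus input.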

| Sequence | amyloid nucleation score |
| --- | --- |
| EASNCFAIRHFENKFAVETLICNGSASGRLGRHE | inactive |
| EASNCFAIRHFENKFAVETLICNGSRG | inactive |
| EASNCFAIRHFENKFAVETLICNGT | inactive |
| EASNCFAIRHFENKFAVETLICNGWNCLDLIRPF | 7.75 |
| EASNCFAIRHFENKFAVETLICNGYCTLVWFVVE | inactive |
| EASNCFAIRHFENKFAVETLICNGYMGSSSFYFG | 6.12 |
| EASNCFAIRHFENKFAVETLICNGYTMEG | inactive |
| EASNCFAIRHFENKFAVETLICNHAYKDCTWTKS | 4.84 |
| EASNCFAIRHFENKFAVETLICNHECYDKLVFGL | inactive |
| EASNCFAIRHFENKFAVETLICNHEYVECFIVAA | inactive |
| EASNCFAIRHFENKFAVETLICNHLYSRSIFCQS | 2.92 |
| EASNCFAIRHFENKFAVETLICNHMRASP | 1.04 |
| EASNCFAIRHFENKFAVETLICNHSMMLHWSGLV | inactive |
| EASNCFAIRHFENKFAVETLICNHTLSYVLVIVG | inactive |
| EASNCFAIRHFENKFAVETLICNHVGRCTGSFTG | inactive |
| EASNCFAIRHFENKFAVETLICNHVMVIDNVVYW | 8.55 |
| EASNCFAIRHFENKFAVETLICNHWDVIECGNY | inactive |
| EASNCFAIRHFENKFAVETLICNIARPGT | 5.63 |
| EASNCFAIRHFENKFAVETLICNICMFDCRTVGG | 8.79 |
| EASNCFAIRHFENKFAVETLICNIDWFLLDMVNK | inactive |
| EASNCFAIRHFENKFAVETLICNIFMVTVERLEY | 4.65 |

| Sequence | amyloid nucleation score |
| --- | --- |
| EASNCFAIRHFENKFAVETLICNILKMRMVMLRF | inactive |
| EASNCFAIRHFENKFAVETLICNIMVRLKLGGKP | 4.46 |
| EASNCFAIRHFENKFAVETLICNIQSWRFICLFM | inactive |
| EASNCFAIRHFENKFAVETLICNIRGRFLCRVAT | inactive |
| EASNCFAIRHFENKFAVETLICNIRSLCYQALRM | inactive |
| EASNCFAIRHFENKFAVETLICNITFYE | 8.94 |
| EASNCFAIRHFENKFAVETLICNITISKTLTATG | 0 |
| EASNCFAIRHFENKFAVETLICNIVARVSGTGNW | 2.59 |
| EASNCFAIRHFENKFAVETLICNIWQTFDCYVRV | inactive |
| EASNCFAIRHFENKFAVETLICNKGWNPVGCAYV | inactive |
| EASNCFAIRHFENKFAVETLICNKHRHKFRHEVT | inactive |
| EASNCFAIRHFENKFAVETLICNKNYALSMKCVR | inactive |
| EASNCFAIRHFENKFAVETLICNKR | inactive |
| EASNCFAIRHFENKFAVETLICNKSCCCNSHYTF | 6.67 |
| EASNCFAIRHFENKFAVETLICNLCALYVNTLCS | 6.16 |
| EASNCFAIRHFENKFAVETLICNLCSSWAGMRVE | 7.64 |
| EASNCFAIRHFENKFAVETLICNLCYFNDKWPVF | inactive |
| EASNCFAIRHFENKFAVETLICNLCYSDFRSDVL | 7.94 |
| EASNCFAIRHFENKFAVETLICNLGHSVLHMGFL | 5.91 |
| EASNCFAIRHFENKFAVETLICNLGKSQGRYVES | inactive |

same assay, conditions: random library (experiment): 3

| Sequence | amyloid nucleation score |
| --- | --- |
| EASNCFAIRHFENKFAVETLICNGDGNKQMRANA | inactive |
| EASNCFAIRHFENKFAVETLICNGHRDARTLVWE | inactive |
| EASNCFAIRHFENKFAVETLICNGKMYPCFDIVS | inactive |
| EASNCFAIRHFENKFAVETLICNGKSLWGEMWLK | inactive |
| EASNCFAIRHFENKFAVETLICNGLASLVTLMEC | inactive |
| EASNCFAIRHFENKFAVETLICNGNAYLIRATCT | inactive |
| EASNCFAIRHFENKFAVETLICNGSYVLRTELCS | inactive |
| EASNCFAIRHFENKFAVETLICNGVLVEEWERWA | 3.33 |
| EASNCFAIRHFENKFAVETLICNHCNGSGYKVAE | inactive |
| EASNCFAIRHFENKFAVETLICNHIRRYDITTLC | inactive |
| EASNCFAIRHFENKFAVETLICNHRNPGNWSATG | inactive |
| EASNCFAIRHFENKFAVETLICNIDLFVILNLSE | 7.51 |
| EASNCFAIRHFENKFAVETLICNITL | 8.16 |
| EASNCFAIRHFENKFAVETLICNIVCVRRLSLVS | inactive |
| EASNCFAIRHFENKFAVETLICNKTCPVNVLSS | inactive |
| EASNCFAIRHFENKFAVETLICNKYALHLFLSQV | inactive |
| EASNCFAIRHFENKFAVETLICNKYCIRC | inactive |
| EASNCFAIRHFENKFAVETLICNLAWG | 3.24 |
| EASNCFAIRHFENKFAVETLICNLEGRCS | inactive |
